Here are results for 89 compounds from publication PMC4336329 (PLoS ONE, 2015).

The structures appear in SMILES notation. Among all 310,000 compounds or so, about 14,000 (4.5%) showed an effect of 50% or more. Effects have a minus sign here. The list shows a part of the results.
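Note: peak tail current of the secondary pulse compared with the same well before compound.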

human ether-à-go-go-related gene (hERG) potassium channel, sequence (Q12809 whole entry, looked up): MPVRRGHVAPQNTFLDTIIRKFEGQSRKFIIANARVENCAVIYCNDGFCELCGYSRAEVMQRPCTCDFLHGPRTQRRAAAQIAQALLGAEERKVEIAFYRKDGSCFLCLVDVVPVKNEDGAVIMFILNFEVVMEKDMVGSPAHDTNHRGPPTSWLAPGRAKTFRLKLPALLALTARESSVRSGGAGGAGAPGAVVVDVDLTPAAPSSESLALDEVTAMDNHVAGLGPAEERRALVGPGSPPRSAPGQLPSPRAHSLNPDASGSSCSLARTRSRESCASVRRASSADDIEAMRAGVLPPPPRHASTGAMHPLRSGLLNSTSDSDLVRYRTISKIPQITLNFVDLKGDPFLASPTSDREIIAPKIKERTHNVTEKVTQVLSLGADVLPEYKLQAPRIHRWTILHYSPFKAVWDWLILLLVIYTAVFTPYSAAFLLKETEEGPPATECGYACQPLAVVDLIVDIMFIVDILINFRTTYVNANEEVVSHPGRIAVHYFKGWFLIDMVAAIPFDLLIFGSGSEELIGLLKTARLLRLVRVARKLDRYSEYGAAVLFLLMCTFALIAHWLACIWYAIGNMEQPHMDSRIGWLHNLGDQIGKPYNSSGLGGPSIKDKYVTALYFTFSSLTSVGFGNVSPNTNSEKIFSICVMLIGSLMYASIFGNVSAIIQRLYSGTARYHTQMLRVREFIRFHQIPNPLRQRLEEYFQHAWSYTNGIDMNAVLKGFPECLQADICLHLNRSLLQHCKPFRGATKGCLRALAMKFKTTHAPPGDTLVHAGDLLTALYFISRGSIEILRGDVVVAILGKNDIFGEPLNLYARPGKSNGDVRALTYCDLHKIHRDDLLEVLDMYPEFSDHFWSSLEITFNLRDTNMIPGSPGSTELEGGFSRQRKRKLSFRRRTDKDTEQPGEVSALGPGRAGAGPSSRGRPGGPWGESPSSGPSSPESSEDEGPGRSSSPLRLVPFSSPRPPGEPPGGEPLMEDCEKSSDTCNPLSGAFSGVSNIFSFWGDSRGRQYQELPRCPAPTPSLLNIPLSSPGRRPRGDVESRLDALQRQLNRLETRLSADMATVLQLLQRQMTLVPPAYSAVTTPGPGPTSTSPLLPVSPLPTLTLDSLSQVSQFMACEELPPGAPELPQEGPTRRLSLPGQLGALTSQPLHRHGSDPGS

The assay concerns the target human ether-à-go-go-related gene (hERG) potassium channel (human, UniProt Q12809). The assay is described as follows: primary screen, population patch clamp on CHO cells stably expressing hERG.
On to `Nc1ccc(C(=O)N/N=C/c2cn(Cc3ccc(F)cc3)c3ccccc23)cc1`, for which the “hERG current change (%, negative = inhibition) at 10uM” value is 3.3%.
The same measure for `O=C(NCCCN1CCOCC1)c1cccc(S(=O)(=O)NCc2ccccc2)c1`: -32%; for `COc1ccc(F)cc1C(=O)C1CCCN(C(=O)CCc2ccccn2)C1` (centres unmarked): 2.48%; for `CCCC(=O)NC(c1ccc2c(c1)OCO2)c1cc(Cl)c2cccnc2c1O` (centres unmarked): -1.58%.
The same measure for `CC1CCCN(C(=O)COC(=O)C2CCN(S(=O)(=O)c3c(Cl)cccc3Cl)CC2)C1` (centres unmarked): -39.4%.
Regarding `Cc1ccccc1NC(=O)COC(=O)c1cc(=O)c2ccccc2o1`, the “hERG current change (%, negative = inhibition) at 10uM” value is -67.4%.
The same measure for `CC(C)Cn1cnc2c1c(=O)n(CC(=O)NC(=O)NC(C)(C)C)c(=O)n2Cc1ccccc1`: 5.69%.
The same measure for `Oc1c(C(c2ccccc2)N2CCN(Cc3ccccc3)CC2)sc2ncnn12` (centres unmarked): -47.9%; for `CCOC(=O)N1CCN(C(=O)C2CCN(c3nnc(-n4cccc4)s3)CC2)CC1`: -57.1%.
Turning to `Clc1ccc(-c2nnc(C3CCCCC3)o2)cc1`, the “hERG current change (%, negative = inhibition) at 10uM” value stood at 2.44%.
Turning to `CC1(C)CC(=O)N(CC(=O)NCc2ccccc2)c2ccccc2S1(=O)=O`, the “hERG current change (%, negative = inhibition) at 10uM” value was found to be 3.5%.
For `CCC(OC(C)=O)c1cc2c(cc1[N+](=O)[O-])OCCO2` (centres unmarked) the value was 0.207%; for `COCCN(C(=O)CNC(=O)c1ccco1)C(C(=O)NC1CCCC1)c1cccs1` (centres unmarked), 13.5%; for `C(=N\Nc1nc(N2CCCC2)nc(N2CCCC2)n1)/c1ccccc1OCc1ccccc1`, 21%.
For the compound `Cc1cccc(CSC2=CS(=O)(=O)c3ccccc3N2)c1`, the “hERG current change (%, negative = inhibition) at 10uM” value was -9.07%.
The same measure for `CCNC(=O)NC(=O)COC(=O)CCCSc1nc2ccccc2s1`: -8.6%; for `Cc1c(Cl)cccc1NC(=O)Nc1cc(C(C)(C)C)on1`: 20.7%.
The same measure for `O=C(C1CCN(S(=O)(=O)c2cccc3nsnc23)CC1)N1CCc2ccccc21`: -25.8%; for `CCCNc1nc(C)cc(-c2cc(C(=O)NC3CCCC3)on2)n1`: 15.8%; for `COc1ccc(NC(=O)COc2ccc(/C=N/n3c(C)nnc3C)cc2OC)cc1`: -25%.
As for `O=C(CCn1c2c(c3ccccc31)CCCC2)NNC(=O)c1ccc(Cl)c([N+](=O)[O-])c1`, the “hERG current change (%, negative = inhibition) at 10uM” value is given as -14.6%.
For `Cc1cccc(C(=O)Nc2ccc(C(=O)N/N=C/c3cccnc3)cc2)c1` the value was 6.76%; for `CCOCC(=O)N1CCN(c2ccc(F)cc2)CC1`, -15.9%; for `O=C(O)c1ccccc1/C=N/Nc1ccc(S(=O)(=O)N2CCOCC2)cc1[N+](=O)[O-]`, 4.4%.
For the compound `COCCN1CCN(Cc2cn[nH]c2-c2cc3ccccc3o2)CC1`, the “hERG current change (%, negative = inhibition) at 10uM” value is reported as -6.62%.
The same measure for `O=C(CCN1N=C(c2ccccc2)CCC1=O)NCC1CCCO1` (centres unmarked): 19%.
On to `CC1=C/C(=C(/c2ccc(O)c(C)c2)c2ccccc2S(=O)(=O)[O-])C=CC1=O.[Na+]`, for which the “hERG current change (%, negative = inhibition) at 10uM” value is on record as 3.9%.
As for `CN(C(=S)Nc1ccc(Oc2ccccc2)cc1)C1CCCCC1`, the “hERG current change (%, negative = inhibition) at 10uM” value was -9.37%.
`CCC(Sc1n[nH]c(=O)[nH]c1=O)C(=O)OCc1ccccc1` (centres unmarked): the “hERG current change (%, negative = inhibition) at 10uM” value is reported as 15.4%.
Take `Cc1ccn2c(=O)nc(SCC(=O)N3CCN(c4ccccc4)CC3)nc2c1`: the “hERG current change (%, negative = inhibition) at 10uM” value is -28.6%.
For `Cc1ccc2nc(C)cc(Nc3ccc([N+](=O)[O-])cc3)c2c1` the value was -14.4%; for `CCOc1ccc(Cl)cc1/C=N/NC(=O)c1ccccc1`, 2.86%; for `O=C(Cn1cccc1C(=O)c1ccccc1)NCc1ccc(Cl)cc1`, 18.7%.
For `Brc1ccc2[nH]c3nc(SCCN4CCOCC4)nnc3c2c1.Cl` the value was -5.08%; for `CCn1cc(CNCc2ccc(OCC(O)CN(C)Cc3ccccc3)cc2)cn1` (centres unmarked), 9.9%; for `CCS(=O)(=O)c1ccc(O)c(NC(=O)COc2ccccc2)c1`, 12.8%.
The same measure for `COc1ccc(N(CC(=O)NCc2ccccc2)S(=O)(=O)c2c(C)nn(C)c2C)cc1`: -11.5%; for `CC(NCC(=O)Nc1ccccc1C(=O)NC1CC1)c1ccc(F)cc1F` (centres unmarked): -32.4%.
As for `COc1ccc(Cn2nnnc2C(c2cccs2)N2CCOCC2)cc1` (centres unmarked), the “hERG current change (%, negative = inhibition) at 10uM” value is reported as -3.21%.
The same measure for `Cc1ccc(S(=O)(=O)N(C)c2ccc(C(=O)N3CCC(C(N)=O)CC3)cc2)cc1`: -0.944%.
With `CCOC(=O)N1CCC(Nc2nc3ccccc3n3nnnc23)CC1`, the “hERG current change (%, negative = inhibition) at 10uM” value was -23.7%.
The same measure for `COc1ccc(NC(=O)CN(C)C(=O)CCCSc2nc3ccccc3[nH]2)cc1`: -22.7%.
The same measure for `c1ccc2c(c1)OCC(c1csc3ncnc(N4CCCCC4)c13)O2` (centres unmarked): 19%.
Take `O=C(CSc1ccc(-c2ccc(Br)cc2)nn1)NCC1CCCO1` (centres unmarked): the “hERG current change (%, negative = inhibition) at 10uM” value turned out to be 3.65%.
For `COCCn1c(CN2CCN(c3ccccc3)CC2)nc2c1c(=O)n(C)c(=O)n2C` the value was -13.8%; for `CCCCCCC(=O)N1CCC(c2nc3c(nnn3Cc3ccccc3Cl)c(=O)[nH]2)CC1`, -29.7%; for `COc1ccccc1NC(=O)/C(=C/c1cccs1)NC(=O)c1ccco1`, -33.1%.
For the compound `CN1CCN(S(=O)(=O)Cc2ccc(Cl)cc2)CC1`, the “hERG current change (%, negative = inhibition) at 10uM” value was -1.42%.
For the compound `O=C1C2CC(O)CN2C(=S)N1Cc1ccccc1` (centres unmarked), the “hERG current change (%, negative = inhibition) at 10uM” value was found to be 14.7%.
For `S=C1NC2=C(C(c3ccc(Br)cc3)N1)N1CCC2CC1` (centres unmarked) the value was -6.25%; for `CCOc1ccc(CNC(=O)CN2C(=O)CSc3ccc(S(=O)(=O)N4CCOCC4)cc32)cc1OC`, -17.7%.
For `CC(=O)Nc1ccc(NC(=O)CSc2ccccn2)cc1` the value was -8.09%; for `COc1ccc(S(=O)(=O)N2CCCC(C(=O)N3CCN(C)CC3)C2)cc1C` (centres unmarked), -2.79%.
For `CC(C)Cc1nc(Cl)c(C#N)c2c1CCCC2` the value was 13.3%; for `Cc1cc(C)n2cc(CSc3nnnn3-c3ccccc3C)nc2n1`, -58.3%; for `COc1cscc1C(N)=O`, 16.1%.
Consider `COc1cccc(/C=N/n2c(C3CCCCC3)n[nH]c2=S)c1`, for which the “hERG current change (%, negative = inhibition) at 10uM” value was 16.8%.
The same measure for `Cc1ccccc1CC1(CO)CCCN(Cc2cn[nH]c2-c2ccccc2)C1` (centres unmarked): -23.9%; for `CC(=O)Nc1ccc(S(=O)(=O)NNC(=O)COc2ccc(C(C)(C)C)cc2)cc1`: 12.7%.
The same measure for `Cl.O=S1(=O)N=C(N(CCO)/N=C/c2ccncc2)c2ccccc21`: -19.9%.
For `O=C(CCN1C(=O)COc2ccccc21)NCc1cccs1` the value was -0.17%.
Regarding `N#Cc1ccccc1Cn1c(=O)n(C2CCCC2)c(=O)c2ccccc21`, the “hERG current change (%, negative = inhibition) at 10uM” value is -12.5%.
As to `O=C(CSc1nnc(NC(=O)c2ccco2)s1)Nc1ccccc1Cl`, the “hERG current change (%, negative = inhibition) at 10uM” value stood at 22.1%.
With `O=C(Sc1ccc(Cl)cc1)c1ccccn1`, the “hERG current change (%, negative = inhibition) at 10uM” value came out at 19.4%.
For `O=C(Nn1cnnc1)c1ccc(Cl)c(Cl)c1` the value was -7.13%; for `CCOC(=O)/C(C#N)=C/Nc1ccccc1NS(=O)(=O)c1ccc(C)c(C)c1`, 10.2%.
As to `O=C(CCc1nc2ccccc2[nH]1)N1CCc2ccccc2C1`, the “hERG current change (%, negative = inhibition) at 10uM” value is on record as -32.1%.
For `C=C(CCC(=O)c1ccccc1)C(=O)c1ccccc1` the value was 7.85%; for `NC(=O)CC(NC(=O)Cc1cccc2ccccc12)c1ccc(NCc2cc(F)ccc2F)c([N+](=O)[O-])c1` (centres unmarked), 14.4%; for `Cc1cccc(OCCNC(=O)c2ccc(Oc3ccc(C(F)(F)F)cc3[N+](=O)[O-])cc2)c1`, 4.59%.
As to `Cc1nnc(SCC(=O)N2CCN(c3cccc(Cl)c3)CC2)n1C1CC1`, the “hERG current change (%, negative = inhibition) at 10uM” value is recorded as -20%.
For `CC(=O)NC(c1cccs1)c1cc(Cl)c2ccccc2c1O` (centres unmarked) the value was -14.3%.
For `O=C1c2ccccc2C(=O)C1c1ccccc1` the value was 15.4%; for `COc1ccc(NC(=O)CSc2nnc(NC(=O)c3ccc(S(=O)(=O)N4CCOCC4)cc3)s2)cc1`, 17.1%.
For `CCOC(=O)c1c(C)[nH]c(C(=O)C(C)Sc2ccc(Cl)cc2)c1C` (centres unmarked) the value was 6.93%; for `Cn1c(=O)c2c(nc(SCC(=O)NCc3ccc4c(c3)OCO4)n2Cc2ccccc2)n(C)c1=O`, -46.9%; for `CCCc1ccc(O)c(N=Cc2cc(Br)cc(OCC)c2O)c1`, -22%.
In the case of `O=C1CCN(C(=S)NCCc2ccccc2)CC1`, the “hERG current change (%, negative = inhibition) at 10uM” value is listed as 13.7%.
For `COc1cccc(OC)c1C(=O)NC(=O)NNc1cc(C(F)(F)F)cc(C)n1` the value was 15.7%.
The same measure for `CC1Cc2ccccc2N1C(=O)CSc1nnc(Cn2nnc3ccccc32)n1C` (centres unmarked): -12.8%; for `CN1CCN(NC(=O)c2cc(Br)ccc2Cl)CC1`: 13.4%; for `COc1ccc(CNC(=O)CCn2c(C)csc2=O)cc1`: -1.34%.
For `COc1cccc(CN(C)C(=O)c2cc(-c3ccc(F)cc3)nc3ccccc23)c1` the value was -1.11%; for `N#C/C(=C\Nc1ccc(Cl)cn1)S(=O)(=O)c1ccccn1`, 11.2%; for `CC1(C)OC(=O)C(=NNc2ccc(Br)cc2)C(=O)O1`, 7.12%.
On to `COc1cc(COC(=O)c2cnc(C)cn2)c(OC)cc1Br`, for which the “hERG current change (%, negative = inhibition) at 10uM” value was found to be 31%.
For `O=C1OC2CCC1(c1ccccc1)C2` (centres unmarked) the value was 4.12%; for `COCCOC(=O)c1c(N)n(Cc2ccco2)c2nc3ccccc3nc12`, -56.7%.
For `O=C(O)C1CCN(C(=O)Cc2ccccc2)CC1` the value was 6.27%.
